From PubChem BioAssay AID1347417 (National Center for Advancing Translational Sciences (NCATS), 2020)
Hit rate of the full screen: of about 120,000 compounds, about 5,300 (4.4%) were called active. This list was built around the results that the source calls inconclusive (neither active nor inactive); the mix of calls is not that of the screen. Calls come from the whole dose curve; as a rule, active = well fitted inhibition curve with a large enough effect; inconclusive = small, poorly fitted or top-dose-only effect; inactive = no such curve, though single readings can be large or run the other way. Where the call is inconclusive, the potency comes from a doubtful curve fit.

assay: qHTS Primary assay for Inhibitors of Plasmodium falciparum Dd2 growth in vitro; note: nearly all actives have a fitted effect of over 65% in size;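 for activity, negative = inhibition: plate controls were DMSO vehicle for no effect and reference drug for full effect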; conditions: P. falciparum Dd2 growth, SYBR Green, 72 h; activity, negative = inhibition: at 28.9 µM (top of the series) unless noted; series mostly up to 28.9 µM
Procedure, shortened: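 Infected erythrocytes (Dd2, 0.3% parasitemia, 2.5% hematocrit final) are added to compound in RPMI-1640/Albumax II medium, grown 72 h at 37C in low oxygen, then lysed with saponin/Triton-X containing SYBR Green and read by fluorescence.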
Potency is the fitted concentration of half-maximal effect; tags give direction and shape of the fitted curve.

Structure (SMILES)	Potency	activity, negative = inhibition
COc1ccc(CN2C(=O)COC[C@H]2C(=O)Nc2cc(C)c(Cl)cc2OC)cc1	inconclusive: 15.8 µM [inhibitor, single point]	–
O=C(CCc1nc(-c2cccs2)no1)Nc1ccc([N+](=O)[O-])cc1	active: 11.2 µM	–
N[C@@H]1CN(c2ncccn2)C[C@H]1CO	inconclusive: 1.78 µM [inhibitor, partial curve]	–
CCc1ccccc1N(CC)C(=O)Cn1nc(Cc2ccncc2)c2ccccc2c1=O	inconclusive: 11.2 µM [inhibitor, single point]	–
CC(C)CCN1C(=O)N(CCCc2ccncc2)C(=O)C12CCN(CC1=CC[C@H]3C[C@@H]1C3(C)C)CC2	inconclusive: 15.8 µM [inhibitor, partial curve, poor fit]	–
COc1ccc(C(=O)N2C(C(=O)N3CCCC3)COC23CCN(C(=O)Cc2ccccc2)CC3)cc1 (stereo not given)	inactive	–
COC1CCC12CCN(Cc1ccc(C#N)cc1)CC2 (stereo not given)	inactive	–
COc1cccc(N2C(=O)NC(=NC3CCCC3)C23CCCN(Cc2ccccc2)C3)c1 (stereo not given)	inconclusive: 11.2 µM [inhibitor, single point]	–
CCn1cc(CN2CCC(N3C(=O)C4(CCCCC4)C3c3ccncc3)CC2)c(C)n1 (stereo not given)	inconclusive: 2.82 µM [inhibitor, full curve, poor fit]	–
Cc1ccn2c(Nc3ccc4c(c3)OCCO4)c(-c3ccc(N(C)C)cc3)nc2c1	inconclusive: 10 µM [inhibitor, single point]	–
O=C(OCc1ccccc1)N1CCOCC12CCN(Cc1cccs1)CC2	inconclusive: 8.91 µM [inhibitor, partial curve, poor fit]	–
Cc1ccc(-n2nc3n(c2=O)CCN(C(=O)c2ccccc2)C3)cc1	inactive	–
COc1ccc(OC)c(CN2CCNc3cnc(OCc4cccnc4)cc3C2)c1	inconclusive: 11.2 µM [inhibitor, partial curve]	–
C#CCN(C)C(=O)C[C@@H]1c2nc(NC(=O)CCCCC)sc2C[C@@H]2[C@](C)(CO)[C@H](O)CC[C@]21C	active: 10 µM	–
CCOc1ccc(-c2nnc(SCC(=O)N(CC)c3cccc(C)c3)o2)cc1	inconclusive: 7.94 µM [inhibitor, single point]	–
O=C1Nc2ccc(-c3ccc4c(c3)OCO4)cc2C(=O)N2CCN(C(=O)C3CCCC3)C[C@@H]12	inactive	–
CCN(CC)C(=O)N1CCCCCCNC(=O)[C@@H]2C[C@@H](c3nc(-c4cccnc4)no3)C[C@@H]21	inconclusive: 17.8 µM [inhibitor, single point]	–
COc1ccc(-c2nnc3n2CCN(C(=O)C2CC2)C3)cc1	inconclusive: 3.55 µM [inhibitor, full curve]	–
COc1cccc(C(=O)N2CCC3(CC2)N=C(c2ccc(Br)cc2)NO3)c1	active: 7.94 µM	–
CCOCCCn1c(=N)c(C(=O)NCc2ccccc2)cc2c(=O)n3ccccc3nc21	inconclusive: 17.8 µM [inhibitor, single point]	–
O=C(c1cccc(F)c1)N1CCC2(CC1)NC(=O)N(c1ccccc1Cl)N2	inconclusive: 20 µM [inhibitor, single point]	–
Cc1oc2ccn(Cc3cccc(F)c3)c(=O)c2c1C(=O)NC1CCCC1	inconclusive: 2.24 µM [inhibitor, full curve, poor fit]	–

Structure (SMILES)	Potency	activity, negative = inhibition
CC(C)Cc1cnc(-c2ccccc2)[nH]1	active: 15.8 µM	–
CCCN(C)C(=O)c1cc(-c2ccncc2)cn1Cc1ccccc1C	inconclusive: 4.47 µM [inhibitor, partial curve, poor fit]	–
NC(C(=O)N1CCC2(CC1)CN(C(=O)Cc1cccc(Cl)c1)CCO2)c1ccccc1 (stereo not given)	inconclusive: 7.94 µM [inhibitor, partial curve]	–
Cc1ccc(NC(=O)CN(c2ccc(C)cc2)S(=O)(=O)c2cccc3nonc23)cc1	inconclusive: 17.8 µM [inhibitor, single point]	–
CCc1cccc(NC(=O)Cn2c(N3CCc4ccccc4C3)nc(C)cc2=O)c1	inconclusive: 3.55 µM [inhibitor, full curve, poor fit]	–
N#Cc1ccccc1CN1CCCCCCNC(=O)[C@@H]2CCC[C@@H]21	active: 2.82 µM	–
CCNC(=O)N1CCC(c2noc(COCCOC)n2)CC1	inactive	–
CN1Cc2ccc(NCc3ccccc3)nc2C(C)(C(=O)NCc2ccc3c(c2)OCO3)C1 (stereo not given)	inconclusive: 0.0708 µM [inhibitor, full curve, poor fit]	–
COc1ccc(-c2noc(-c3cccn3CC(=O)Nc3ccccc3F)n2)cc1F	inconclusive: 0.631 µM [inhibitor, full curve, poor fit]	–
CCc1nc2c(c(-c3ccc(Cl)cc3)n1)CN(Cc1ccc(C(F)(F)F)cc1)CC2	inconclusive: 12.6 µM [inhibitor, single point]	–
Cc1cc(C(=O)NCc2ccccc2)c2c(C)nn(-c3cccc(Cl)c3C)c2n1	–	inconclusive: -33.2% [inhibitor] [at 5.79 µM]
COCc1nncn1C1CCN(C(=O)c2cc(F)cc(F)c2)CC1	inactive	–
c1ccc(-c2noc(-c3ccccc3OC3CCNC3)n2)cc1 (stereo not given)	inconclusive: 3.98 µM [inhibitor, single point]	–
Cc1ccc(NC(=O)C2CCCN2S(=O)(=O)c2ccc3nc(-c4ccccc4)[nH]c3c2)cc1C (stereo not given)	inconclusive: 7.94 µM [inhibitor, single point]	–
Cn1ccnc1CN1C(=O)CO[C@H]2CN(Cc3ccc(S(C)(=O)=O)cc3)C[C@H]21	inactive	–
Nc1nc(C2CC(N)C2)cc(N2CCN(C3CCCC3)C(=O)C2)n1 (stereo not given)	inactive	–
Cc1cccc(Cn2c(=O)n(Cc3ccccc3)c(=O)c3sc4ccccc4c32)c1	active: 8.91 µM	–
CCCCn1c(CNC(=O)C23CC4CC(CC(C4)C2)C3)nnc1SCC(=O)Nc1ccc(F)cc1	inconclusive: 17.8 µM [inhibitor, single point]	–
CC(=O)N1C[C@@H](C(=O)NCc2ccc(F)c(Cl)c2)[C@H](c2nc(C)no2)C1	inactive	–
Cc1noc(C)c1[S+](=O)([O-])N1CCC2(C1)C(=NC1CCCC1)NC(=O)N2c1cccnc1 (stereo not given)	inactive	–
NCCc1cccc(CN2CCC(OCc3ccccc3)CC2)c1	active: 4.47 µM	–
Cc1ccc(CN2C[C@@H]3C[C@H]2C(=O)N(CC2CC2)c2ccccc2O3)cc1	active: 10 µM	–

Structure (SMILES)	Potency	activity, negative = inhibition
COc1cccc(N2C(=O)NC(=NC3CCCC3)C23CCCN([S+](=O)([O-])c2cccc(C(F)(F)F)c2)C3)c1 (stereo not given)	inconclusive: 10 µM [inhibitor, single point]	–
Cc1ccc(C#N)c(NCc2cccnc2Oc2cccc(C(F)(F)F)c2)n1	inconclusive: 10 µM [inhibitor, partial curve, poor fit]	–
COc1ccc(C2(C(=O)NCCc3ncc(C)n3Cc3ccc(F)cc3)CC2)cc1	inconclusive: 0.891 µM [inhibitor, partial curve, poor fit]	–
O=C1CC2(CCN(Cc3ccc(C(F)(F)F)cc3)CC2)Oc2ccccc21	inconclusive: 2.24 µM [inhibitor, single point]	–
O=C1NC(=NC2CCCCC2)C2(CCCN(Cc3ccccc3)C2)N1c1cc(F)cc(F)c1 (stereo not given)	active: 7.08 µM	–
CCOc1ccccc1CNC(=O)C1CCN(C(=O)N2CCOc3ccc(Cl)cc32)CC1	inconclusive: 7.08 µM [inhibitor, partial curve]	–
CCC(=O)N1CCc2cc(CNC(=O)Cc3ccc(OC)c(OC)c3)ccc21	inactive	–
Cc1ccccc1Cn1cnc2c(oc3ccccc32)c1=O	active: 8.91 µM	–
O=C(c1ccc2ncccc2c1)N1CCC2(CC1)CC(CO)N(C(=O)c1ccccc1)C2 (stereo not given)	inactive	–
CC1=Nc2cc(C(=O)NC3CCC(C)CC3)ccc2Sc2c(C)ccc(C)c21 (stereo not given)	active: 11.2 µM	–
CN1CCC([C@@H]2CN(C(=O)NCCc3ccccc3)C[C@H]2C(N)=O)CC1	inactive	–
COC(=O)c1ccc(Nc2nc(-c3ccc(C)cc3)nc3ccccc23)cc1	inconclusive: 17.8 µM [inhibitor, single point]	–
CC(=O)N1CCc2c(sc3c2c(=O)n(Cc2ccccc2)c(=O)n3Cc2cccc(Cl)c2)C1	active: 10 µM	–
CC(C)c1cnc(C2CCN(C(=O)OC(C)(C)C)CC2)[nH]1	inconclusive: 22.4 µM [inhibitor, single point]	–
Cc1ccc(Cn2c(C3CCN(C(=O)c4ccc(C)c(F)c4)CC3)n[nH]c2=O)cc1	inconclusive: 10 µM [inhibitor, single point]	–
Cn1nc(C2CCCC2)cc1[C@H]1CN2CC[C@H]1C[C@@H]2CNC(=O)c1cccs1	inconclusive: 2.82 µM [inhibitor, partial curve, poor fit]	–
CC(C)(C)c1ccc(-c2cn(C[C@H]3CC4CCN3C[C@@H]4C(=O)N3CCOCC3)nn2)cc1 (stereo not given in full)	inconclusive: 10 µM [inhibitor, single point]	–
COCC1CN(C)CC12CCN(C(=O)CCc1ccc(OC)cc1)CC2 (stereo not given)	inconclusive: 7.94 µM [inhibitor, partial curve, poor fit]	–
COc1ccc(NC(=O)Cn2nc3n(c2=O)CCCC3)cc1Cl	inconclusive: 8.91 µM [inhibitor, partial curve]	–
COc1cccc(CNC(=O)[C@@]23CCCC[C@H]2N(CCc2ccccc2)C(=O)CC3)c1	inconclusive: 8.91 µM [inhibitor, single point]	–
COCC1CN(C)CC12CCN(S(=O)(=O)c1ccc3c(c1)CCC3)CC2 (stereo not given)	inconclusive: 20 µM [inhibitor, single point]	–
